Lines with a small IC50 respond at low doses; a fit beyond the top or the lowest dose is shown as a bound at that dose. AUC sums up the same curve from the lowest dose to the 256-fold higher top dose; it is 1 without any effect and falls as sensitivity rises. The top dose, if marked as inferred, was calculated from the reported fits.
Key:
[1] = compound: Cc1ccc(-c2c(C(=O)CF)n(CCCO)c3ncnc(N)c23)cc1 [FMK]; experiment: Viability of human cancer cell lines after 72 h of drug (GDSC screen); settings: top dose inferred
Protocol: (§1)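 Human cancer cell lines in 384-well plates, medium with 10% serum, drug for 72 h over a 256-fold dose range (nine 2-fold or five 4-fold steps up to the top dose). Adherent lines were fixed and stained with the nucleic acid dye Syto60, suspension lines read with resazurin; signal relative to control wells, capped at 0 and 100%. One two-parameter sigmoid per drug and line, fitted in a mixed model over all curves with the slope shared within a line.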

[2] = compound: N.N.[Cl][Pt][Cl] [Cisplatin]; experiment: as above; settings: top dose inferred
Protocol: as §1

Cell Line	AUC [1]	IC50 [1] [µM]	AUC [2]	IC50 [2] [µM]
8-MG-BA (glioma, adherent, top dose 20 µM)	0.973	> 20	–	–
42-MG-BA (glioma, adherent, top dose 20 µM)	0.974	> 20	–	–
201T (lung adenocarcinoma, adherent, top dose 20 µM)	0.958	> 20	–	–
451Lu (melanoma, adherent, top dose 20 µM)	0.988	> 20	–	–
639-V (bladder, adherent, top dose 20 µM)	0.991	> 20	–	–
647-V (bladder, adherent, top dose 20 µM)	0.986	> 20	–	–
697 (lymphoblastic leukaemia, suspension, top dose 20 µM)	0.956	> 20	–	–
769-P (kidney, adherent, top dose 20 µM)	0.955	> 20	–	–
786-0 (kidney, adherent, top dose 20 µM)	0.968	> 20	–	–
5637 (bladder, adherent, top dose 20 µM)	0.989	> 20	–	–
8505C (thyroid, adherent, top dose 20 µM)	0.978	> 20	–	–
23132-87 (stomach, adherent, top dose 20 µM)	0.986	> 20	–	–
A3-KAW (B-cell lymphoma, suspension, top dose 20 µM)	0.967	> 20	–	–
A4-Fuk (B-cell lymphoma, suspension, top dose 20 µM)	0.969	> 20	–	–
A101D (melanoma, adherent, top dose 20 µM)	0.981	> 20	–	–
A172 (glioma, adherent, top dose 20 µM)	0.979	> 20	–	–
A204 (rhabdomyosarcoma, adherent, top dose 20 µM)	0.971	> 20	–	–
A253 (head and neck, adherent, top dose 20 µM)	0.982	> 20	–	–
A375 (melanoma, adherent, top dose 20 µM)	0.952	> 20	–	–
A388 (skin, adherent, top dose 20 µM)	0.974	> 20	–	–
A427 (non-small cell lung carcinoma, adherent, top dose 20 µM)	0.983	> 20	–	–

Cell Line	AUC [1]	IC50 [1] [µM]	AUC [2]	IC50 [2] [µM]
A431 (skin, adherent, top dose 20 µM)	0.959	> 20	–	–
A673 (rhabdomyosarcoma, adherent, top dose 20 µM)	0.99	> 20	–	–
A704 (kidney, adherent, top dose 20 µM)	0.989	> 20	–	–
A2058 (melanoma, adherent, top dose 20 µM)	0.981	> 20	–	–
A2780 (ovary, semi-adherent, top dose 20 µM)	0.95	> 20	–	–
ABC-1 (lung adenocarcinoma, adherent, top dose 20 µM)	0.978	> 20	–	–
ACHN (kidney, adherent, top dose 20 µM)	0.947	> 20	–	–
AGS (stomach, adherent, top dose 20 µM)	0.989	> 20	–	–
ALL-PO (lymphoblastic leukaemia, suspension, top dose 20 µM)	0.877	> 20	–	–
ALL-SIL (T-cell leukaemia, suspension, top dose 20 µM)	0.896	18.6	–	–
AM-38 (glioma, semi-adherent, top dose 20 µM)	0.971	> 20	–	–
TE-6 (oesophagus, adherent, top dose 10 µM)	–	–	0.941	> 10
TE-8 (oesophagus, adherent, top dose 10 µM)	–	–	0.867	> 10
TE-9 (oesophagus, adherent, top dose 10 µM)	–	–	0.914	> 10
TE-11 (oesophagus, adherent, top dose 10 µM)	–	–	0.943	> 10
TE-12 (oesophagus, suspension, top dose 10 µM)	–	–	0.848	> 10
TE-15 (oesophagus, suspension, top dose 10 µM)	–	–	0.937	> 10
TGBC1TKB (biliary tract, adherent, top dose 10 µM)	–	–	0.949	> 10
TGBC11TKB (stomach, adherent, top dose 10 µM)	–	–	0.975	> 10
TGW (neuroblastoma, adherent, top dose 10 µM)	–	–	0.916	> 10
TK10 (kidney, adherent, top dose 10 µM)	–	–	0.919	> 10

Cell Line	AUC [1]	IC50 [1] [µM]	AUC [2]	IC50 [2] [µM]
TK (B-cell lymphoma, suspension, top dose 10 µM)	–	–	0.958	> 10
TMK-1 (stomach, adherent, top dose 10 µM)	–	–	0.869	> 10
TOV-21G (ovary, adherent, top dose 10 µM)	–	–	0.573	1.01
TOV-112D (ovary, adherent, top dose 10 µM)	–	–	0.899	> 10
TT2609-C02 (thyroid, adherent, top dose 10 µM)	–	–	0.917	> 10
TT (thyroid, adherent, top dose 10 µM)	–	–	0.902	> 10
TUR (B-cell lymphoma, suspension, top dose 10 µM)	–	–	0.956	> 10
TYK-nu (ovary, adherent, top dose 10 µM)	–	–	0.85	8.38
U251 (glioma, adherent, top dose 10 µM)	–	–	0.881	9.62
U-87-MG (glioma, adherent, top dose 10 µM)	–	–	0.912	> 10
U-118-MG (glioma, adherent, top dose 10 µM)	–	–	0.89	> 10
U-266 (myeloma, semi-adherent, top dose 10 µM)	–	–	0.954	> 10
U-698-M (B-cell leukaemia, suspension, top dose 10 µM)	–	–	0.924	> 10
UACC-62 (melanoma, adherent, top dose 10 µM)	–	–	0.89	> 10
UACC-257 (melanoma, adherent, top dose 10 µM)	–	–	0.941	> 10
UACC-893 (breast, adherent, top dose 10 µM)	–	–	0.908	> 10
UM-UC-3 (bladder, adherent, top dose 10 µM)	–	–	0.833	5.93
UMC-11 (lung carcinoid, adherent, top dose 10 µM)	–	–	0.991	> 10
UWB1.289 (ovary, adherent, top dose 10 µM)	–	–	0.905	> 10
VA-ES-BJ (soft tissue, adherent, top dose 10 µM)	–	–	0.718	2.7
VAL (B-cell lymphoma, suspension, top dose 10 µM)	–	–	0.932	> 10

Cell Line	AUC [1]	IC50 [1] [µM]	AUC [2]	IC50 [2] [µM]
VCaP (prostate, adherent, top dose 10 µM)	–	–	0.987	> 10
VMRC-LCD (lung adenocarcinoma, adherent, top dose 10 µM)	–	–	0.972	> 10
VMRC-MELG (melanoma, adherent, top dose 10 µM)	–	–	0.985	> 10
VMRC-RCW (kidney, adherent, top dose 10 µM)	–	–	0.949	> 10
VMRC-RCZ (kidney, adherent, top dose 10 µM)	–	–	0.976	> 10
WIL2-NS (lymphoid neoplasm, suspension, top dose 10 µM)	–	–	0.908	9.26
WM35 (melanoma, adherent, top dose 10 µM)	–	–	0.847	7.44
WM278 (melanoma, adherent, top dose 10 µM)	–	–	0.899	> 10
WM793B (melanoma, adherent, top dose 10 µM)	–	–	0.884	> 10
WM1552C (melanoma, adherent, top dose 10 µM)	–	–	0.886	> 10
WM-115 (melanoma, adherent, top dose 10 µM)	–	–	0.883	> 10
WSU-DLCL2 (B-cell lymphoma, suspension, top dose 10 µM)	–	–	0.976	> 10
WSU-NHL (lymphoid neoplasm, suspension, top dose 10 µM)	–	–	0.921	> 10
YAPC (pancreas, adherent, top dose 10 µM)	–	–	0.985	> 10
YH-13 (glioma, adherent, top dose 10 µM)	–	–	0.884	> 10
YKG-1 (glioma, adherent, top dose 10 µM)	–	–	0.829	6.36
YT (lymphoid neoplasm, suspension, top dose 10 µM)	–	–	0.988	> 10
ZR-75-30 (breast, adherent, top dose 10 µM)	–	–	0.964	> 10
huH-1 (liver, adherent, top dose 10 µM)	–	–	0.819	7.53
no-10 (glioma, adherent, top dose 10 µM)	–	–	0.942	> 10
no-11 (glioma, adherent, top dose 10 µM)	–	–	0.857	> 10

From the supplement of paper PMC4967469
